Results reported in article PMC5540273 (PLoS ONE, 2017).
For some assays here: What follows is the remainder of the data, with few or none of the strong results. This is a selection; strong and weak results do not stand in their true shares.

test system: MYLK; conditions: concentration: 1 μM,replicates: in singlicate; n = 1
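Also: KINOMEscan kinase panel screen.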

SMILES | %Inh
O=C1NC(=O)C(c2ccccc2Cl)=C1Nc1ccccc1 [SB-376715] | 12%
CSc1ccc(NC2=C(c3cccc(Cl)c3)C(=O)NC2=O)cc1 [SB-341528] | 0%
O=C1NC(=O)C(c2ccc(Cl)cc2)=C1Nc1ccccc1 [SB-317661] | 0%
COc1ccc(C2=C(Nc3cccc(Cl)c3)C(=O)NC2=O)cc1 [SB-326892] | 0%
O=C1NC(=O)C(c2ccccc2Cl)=C1Nc1cccc(C(=O)O)c1 [SB-390526] | 2%
COc1cccc(C2=C(Nc3ccc(SC)cc3)C(=O)NC2=O)c1 [SB-331032] | 0%
O=C(O)c1ccc(-c2nc(-c3ccc(F)cc3)c(-c3ccncc3)[nH]2)cc1 [SB-202620] | 0%
O=C1NC(=O)C(c2ccccc2)=C1Nc1ccc(Cl)c(C(=O)O)c1 [SB-390532] | 17%
O=C1NC(=O)C(c2ccc(Cl)cc2)=C1Nc1cccc(O)c1 [SB-333613] | 43%
CS(=O)(=O)c1ccccc1-c1nc(-c2ccc(F)cc2)c(-c2ccncc2)[nH]1 [SB-213663] | 100%
Cc1cc(C)cc(Oc2nccc(-c3c(-c4ccc(F)cc4)ncn3C3CCNCC3)n2)c1.O=C(O)C(F)(F)F.O=C(O)C(F)(F)F.O=C(O)C(F)(F)F [SB-284851] | 8%
O=C1NC(=O)C(c2ccc(Cl)cc2)=C1Nc1cccc(C(=O)O)c1 [SB-360737] | 12%
O=C1NC(=O)C(c2ccc(Cl)cc2)=C1Nc1ccc(O)c(Cl)c1 [SB-405367] | 0%
O=C1NC(=O)C(c2ccccc2)=C1Nc1cc(Cl)c(O)c(Cl)c1 [SB-390530] | 19%
Cc1ccc(C)c(Oc2nccc(-c3c(-c4ccc(F)cc4)ncn3C3CCNCC3)n2)c1.O=C(O)C(F)(F)F.O=C(O)C(F)(F)F.O=C(O)C(F)(F)F [SB-284852] | 17%
O=C1NC(=O)c2c1c(-c1ccccc1)cc1[nH]c3ccc(O)cc3c21 | 89%

test system: MYO3A; conditions: concentration: 1 μM,replicates: in singlicate; n = 1

SMILES | %Inh
O=C1NC(=O)C(c2ccccc2Cl)=C1Nc1ccccc1 [SB-376715] | 4%
CSc1ccc(NC2=C(c3cccc(Cl)c3)C(=O)NC2=O)cc1 [SB-341528] | 0%
O=C1NC(=O)C(c2ccc(Cl)cc2)=C1Nc1ccccc1 [SB-317661] | 0%
COc1ccc(C2=C(Nc3cccc(Cl)c3)C(=O)NC2=O)cc1 [SB-326892] | 0%
O=C1NC(=O)C(c2ccccc2Cl)=C1Nc1cccc(C(=O)O)c1 [SB-390526] | 23%
COc1cccc(C2=C(Nc3ccc(SC)cc3)C(=O)NC2=O)c1 [SB-331032] | 13%
O=C(O)c1ccc(-c2nc(-c3ccc(F)cc3)c(-c3ccncc3)[nH]2)cc1 [SB-202620] | 0%
O=C1NC(=O)C(c2ccccc2)=C1Nc1ccc(Cl)c(C(=O)O)c1 [SB-390532] | 26%
O=C1NC(=O)C(c2ccc(Cl)cc2)=C1Nc1cccc(O)c1 [SB-333613] | 0%
CS(=O)(=O)c1ccccc1-c1nc(-c2ccc(F)cc2)c(-c2ccncc2)[nH]1 [SB-213663] | 19%
Cc1cc(C)cc(Oc2nccc(-c3c(-c4ccc(F)cc4)ncn3C3CCNCC3)n2)c1.O=C(O)C(F)(F)F.O=C(O)C(F)(F)F.O=C(O)C(F)(F)F [SB-284851] | 15%
O=C1NC(=O)C(c2ccc(Cl)cc2)=C1Nc1cccc(C(=O)O)c1 [SB-360737] | 0%
O=C1NC(=O)C(c2ccc(Cl)cc2)=C1Nc1ccc(O)c(Cl)c1 [SB-405367] | 13%
O=C1NC(=O)C(c2ccccc2)=C1Nc1cc(Cl)c(O)c(Cl)c1 [SB-390530] | 10%
O=C1NC(=O)c2c1c(-c1ccccc1)cc1[nH]c3ccc(O)cc3c21 | 6%

test system: MYO3B; conditions: concentration: 1 μM,replicates: in singlicate; n = 1

SMILES | %Inh
O=C1NC(=O)C(c2ccccc2Cl)=C1Nc1ccccc1 [SB-376715] | 0%
CSc1ccc(NC2=C(c3cccc(Cl)c3)C(=O)NC2=O)cc1 [SB-341528] | 0%
O=C1NC(=O)C(c2ccc(Cl)cc2)=C1Nc1ccccc1 [SB-317661] | 0%
COc1ccc(C2=C(Nc3cccc(Cl)c3)C(=O)NC2=O)cc1 [SB-326892] | 15%
O=C1NC(=O)C(c2ccccc2Cl)=C1Nc1cccc(C(=O)O)c1 [SB-390526] | 0%
COc1cccc(C2=C(Nc3ccc(SC)cc3)C(=O)NC2=O)c1 [SB-331032] | 0%
O=C(O)c1ccc(-c2nc(-c3ccc(F)cc3)c(-c3ccncc3)[nH]2)cc1 [SB-202620] | 26%
O=C1NC(=O)C(c2ccccc2)=C1Nc1ccc(Cl)c(C(=O)O)c1 [SB-390532] | 7%
O=C1NC(=O)C(c2ccc(Cl)cc2)=C1Nc1cccc(O)c1 [SB-333613] | 0%
CS(=O)(=O)c1ccccc1-c1nc(-c2ccc(F)cc2)c(-c2ccncc2)[nH]1 [SB-213663] | 0%
Cc1cc(C)cc(Oc2nccc(-c3c(-c4ccc(F)cc4)ncn3C3CCNCC3)n2)c1.O=C(O)C(F)(F)F.O=C(O)C(F)(F)F.O=C(O)C(F)(F)F [SB-284851] | 13%
O=C1NC(=O)C(c2ccc(Cl)cc2)=C1Nc1cccc(C(=O)O)c1 [SB-360737] | 0%
O=C1NC(=O)C(c2ccc(Cl)cc2)=C1Nc1ccc(O)c(Cl)c1 [SB-405367] | 0%
O=C1NC(=O)C(c2ccccc2)=C1Nc1cc(Cl)c(O)c(Cl)c1 [SB-390530] | 37%
Cc1ccc(C)c(Oc2nccc(-c3c(-c4ccc(F)cc4)ncn3C3CCNCC3)n2)c1.O=C(O)C(F)(F)F.O=C(O)C(F)(F)F.O=C(O)C(F)(F)F [SB-284852] | 15%
O=C1NC(=O)c2c1c(-c1ccccc1)cc1[nH]c3ccc(O)cc3c21 | 0%
